Our source for the ratio to parent values is paper PMC10986105.

B1: Flag-tagging AnxA6 (annexin A6 from plasmid pTango-4*Flag-AnxA6) [not stated] / EGFP-tagging RHOU (Ras homolog family member U from plasmid pEGFP-RHOU) [not stated] (parent)
chain 1: MAKPAQGAKYRGSIHDFPGFDPNQDAEALYTAMKGFGSDKEAILDIITSRSNRQRQEVCQSYKSLYGKDLIADLKYELTGKFERLIVGLMRPPAYCDAKEIKDAISGIGTDEKCLIEILASRTNEQMHQLVAAYKDAYERDLEADIIGDTSGHFQKMLVVLLQGTREEDDVVSEDLVQQDVQDLYEAGELKWGTDEAQFIYILGNRSKQHLRLVFDEYLKTTGKPIEASIRGELSGDFEKLMLAVVKCIRSTPEYFAERLFKAMKGLGTRDNTLIRIMVSRSELDMLDIREIFRTKYEKSLYSMIKNDTSGEYKKTLLKLSGGDDDAAGQFFPEAAQVAYQMWELSAVARVELKGTVRPANDFNPDADAKALRKAMKGLGTDEDTIIDIITHRSNVQRQQIRQTFKSHFGRDLMTDLKSEISGDLARLILGLMMPPAHYDAKQLKKAMEGAGTDEKALIEILATRTNAEIRAINEAYKEDYHKSLEDALSSDTSGHFRRILISLATGHREEGGENLDQAREDAQVAAEILEIADTPSGDKTSLETRFMTILCTRSYPHLRRVFQEFIKMTNYDVEHTIKKEMSGDVRDAFVAIVQSVKNKPLFFADKLYKSMKGAGTDEKTLTRIMVSRSEIDLLNIRREFIEKYDKSLHQAIEGDTSGDFLKALLALCGGED
chain 2: MPPQQGDPAFPDRCEAPPVPPRRERGGRGGRGPGEPGGRGRAGGAEGRGVKCVLVGDGAVGKTSLVVSYTTNGYPTEYIPTAFDNFSAVVSVDGRPVRLQLCDTAGQDEFDKLRPLCYTNTDIFLLCFSVVSPSSFQNVSEKWVPEIRCHCPKAPIILVGTQSDLREDVKVLIELDKCKEKPVPEEAAKLCAEEIKAASYIECSALTQKNLKEVFDAAIVAGIQYSDTQQQPKKSKSRTPDKMKNLSKSWWKKYCCFV

The variants in this assay derive from B1. Description: co-immunoprecipitation (IP of Flag-tagging AnxA6, immunoblot for GFP), band quantification. As to conditions: with EGFP-tagging RHOU (Ras homolog family member U from plasmid pEGFP-RHOU); HepG2 cells co-transfected with pEGFP-RHOU, pHis-SUMO1 and pFlag-AnxA6 or pFlag-AnxA6K579R; parent: 1; read off a plot.
Consider chain 1 K579R, for which the ratio to parent stood at 0.8.
